From PubChem BioAssay AID504832 (National Center for Advancing Translational Sciences (NCATS), 2011)
The whole screen tested about 310,000 compounds, of which about 18,000 (5.8%) were called active. Inconclusive means that the source gave no clear call. Such entries were picked first, then a sample of the others. Calls follow the shape of the dose curve; as a rule, active = well fitted inhibition curve with a large enough effect; inconclusive = small, poorly fitted or top-dose-only effect, or another doubt; inactive = no such curve, though single readings can be large or run the other way. No potency is given beside an inconclusive call; the fits are too rough.
Potency is read from the fitted curve at half-maximal effect; tags tell the direction and shape of the fitted curve.

Test: Primary qHTS for delayed death inhibitors of the malarial parasite plastid, 48 hour incubation
Details: P. falciparum luciferase growth in erythrocytes; series mostly up to 28.7 µM
In short: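 Parasite viability was followed by luminescence of a genomically integrated firefly luciferase. Cultures held 0.1% parasitemia at 2% hematocrit (final), incubated under 5% CO2 at 37 C.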
In the case of `CCn1cc(C(=O)NCc2ccccc2OC)c(=O)c2cc(S(=O)(=O)N(C)C)ccc21`, the Potency was inconclusive [inhibitor, single point].
In the case of `CC1CCN(c2ccccc2NC(=O)c2ccc([N+](=O)[O-])o2)CC1`, the Potency was inconclusive [inhibitor, single point].
For `Cc1nonc1NC(=O)N1CCCC1`, the Potency was “inactive”.
For `CCn1cc(Cl)c(C(=O)N2N=C(c3ccc4ccccc4c3)CC2c2ccccc2O)n1` (centres undefined), the Potency was active: 2.08 µM.
In the case of `O=C(Nc1ccncc1)c1ccc(Br)cc1`, the Potency was inconclusive [inhibitor, partial curve, poor fit].
With `COCCn1c(-c2ccc3ccccc3c2)nc2c1c(=O)[nH]c(=O)n2CC(C)C` the Potency was inconclusive [inhibitor, single point].
With `COc1ccccc1CNC(=O)c1cc(-c2ccccc2)n(Cc2cc(C)no2)n1` the Potency was inconclusive [inhibitor, single point].
In the case of `Cc1n[nH]c(C)c1C(=O)CC1(O)C(=O)N(CCc2ccccc2)c2ccc(Cl)cc21` (centres undefined), the Potency was inconclusive [inhibitor, single point].
For `COc1cc(/C=C/C(=O)OC(C)C(=O)NC2CCCCC2C)cc(Cl)c1OC` (centres undefined), the Potency was inconclusive [inhibitor, single point].
For `Cc1ccc(S(=O)(=O)N2CCOCC2)cc1C(=O)NC(=S)N(Cc1ccccc1)C(C)C`, the Potency was “inactive”.
With `COc1cccc2cc(C(C)N(CCCN3CCOCC3)C(=S)Nc3cc(C)cc(C)c3)oc12` (centres undefined) the Potency was inconclusive [inhibitor, full curve, poor fit].
For `CC(=O)Oc1ccc2cc(-c3nc4ccccc4n3C)c(=O)oc2c1`, the Potency was “inactive”.
For `C/C(=N/NC(=O)c1ccccc1)C(=O)O`, the Potency was “inactive”.
For `Cc1cccc(Oc2coc3cc(OC(=O)c4cc5ccccc5oc4=O)ccc3c2=O)c1`, the Potency was “inactive”.
In the case of `Cc1ccc(S(=O)(=O)N2CCN(C(=O)C3CCN(C(=O)c4ccccc4C)CC3)CC2)cc1C`, the Potency was inconclusive [inhibitor, partial curve].
For `CCc1cc(C(=O)c2ccc(OC)cc2)c(NC(=O)CN2CCCCC2)s1`, the Potency was active: 3.7 µM.
With `CN(C)/C=C(\C#N)C(N)=C(C#N)C#N` the Potency was inconclusive [inhibitor, single point].
With `CC(NCc1nc2ccccc2n1C)C12CC3CC(CC(C3)C1)C2` (centres undefined) the Potency was inconclusive [inhibitor, partial curve].
With `COC(=O)c1ccc(CSc2nc3ccccc3[nH]2)o1` the Potency was “inactive”.
With `N#Cc1c(-c2cccnc2)c2c([nH]c1=S)CCCC2` the Potency was inconclusive [inhibitor, single point].
In the case of `Cc1cc(C)nc(/N=C(\N)Nc2cccc(OCc3ccccc3)c2)n1`, the Potency was inconclusive [inhibitor, single point].
In the case of `O=C1c2cccc(OCC(=O)N3CCCc4ccccc43)c2CCN1Cc1ccc(Br)cc1`, the Potency was inconclusive [inhibitor, partial curve, poor fit].
With `Cc1ccc(C)c(NC(=O)CN2C(=O)NC(C)(c3ccc4c(c3)OCCO4)C2=O)c1` (centres undefined) the Potency was inconclusive [inhibitor, single point].
In the case of `CCN(CC(=O)Nc1c(F)cccc1F)C(=O)c1ccc(S(=O)(=O)N2CCC(C)CC2)cc1`, the Potency was inconclusive [inhibitor, single point].
For `O=C(Nc1ccc(Br)cc1)N1CCCCC1`, the Potency was “inactive”.
With `CCOc1ccc2nc(NC(=O)C3CCCN(S(=O)(=O)c4c(C)noc4C)C3)sc2c1` (centres undefined) the Potency was inconclusive [inhibitor, single point].
With `CCCCOc1ccc(NC(=O)CSc2nnnn2C)cc1` the Potency was “inactive”.
For `COC(=O)[C@@]1(Cc2ccc(OC)cc2)[C@H]2c3cc(C(=O)N4CCCC4)n(Cc4ccc(OC)c(OC)c4)c3C[C@H]2CN1C(=O)c1ccccc1`, the Potency was inconclusive [inhibitor, full curve].
In the case of `CC1(C)C(C=C(Cl)Cl)C1C(=O)N(Cc1cccc(Cl)c1)C1CCS(=O)(=O)C1` (centres undefined), the Potency was inconclusive [inhibitor, single point].
With `CCn1c(C)cc2c(c1=O)C(c1ccc3c(c1)OCO3)C(C#N)=C(N)O2` (centres undefined) the Potency was inconclusive [inhibitor, single point].
With `N#Cc1cc(C(=O)c2ccccc2OCC(=O)Nc2ccccc2Cl)cn(C2CCCCC2)c1=O` the Potency was inconclusive [inhibitor, single point].
In the case of `CCOc1cc(C(=O)Nc2ccc(S(=O)(=O)Nc3nnc(CC)s3)cc2)cc(OCC)c1OCC`, the Potency was inconclusive [inhibitor, single point].
In the case of `Cc1cccc(-n2cc(CN(C)Cc3nccn3C)c(-c3cccc(F)c3)n2)c1`, the Potency was inconclusive [inhibitor, partial curve].
With `CNC(=S)N/N=C(\C)c1ccc2c(c1)OCCO2` the Potency was “inactive”.
With `Cc1cccc(NC(=O)c2ccc(Cn3cc(C(F)(F)F)ccc3=O)cc2)c1` the Potency was inconclusive [inhibitor, partial curve].
For `O=C(NCc1cccs1)c1noc2c1CCCC2`, the Potency was “inactive”.
In the case of `CC(C)N(C)C1CCN(S(=O)(=O)c2ccc(-c3ccc(=O)[nH]n3)s2)CC1`, the Potency was inconclusive [inhibitor, partial curve].
With `COc1ccc(NC(=S)NNC(=O)COc2ccc(Cl)cc2Cl)cc1` the Potency was “inactive”.
For `CC(=O)N1CCN(C(=O)c2ccc(C(=O)c3ccccc3)cc2)CC1`, the Potency was “inactive”.
For `COc1ccccc1NCC(=O)N/N=C/c1sccc1C`, the Potency was “inactive”.
For `CC1CCCC(NC(=O)c2ccc3c(SCC(=O)O)c4c(nc3c2)CCC4)C1C` (centres undefined), the Potency was inconclusive [inhibitor, single point].
In the case of `O=C(CSc1nc2[nH]ncc2c(=O)[nH]1)Nc1ccccc1C(F)(F)F`, the Potency was inconclusive [inhibitor, single point].
In the case of `CC(=O)Nc1ccc(NS(=O)(=O)c2cc(-c3cnc(C4CC4)o3)ccc2C)cc1`, the Potency was inconclusive [inhibitor, single point].
For `Cn1cccc1CC(=O)N/N=C/C=C/c1ccco1`, the Potency was “inactive”.
In the case of `C[C@H]1[C@H](NC(=O)/C(=N/OC(C)(C)C(=O)O)c2csc(N)n2)C(=O)N1S(=O)(=O)O` (stereo in doubt), the Potency was “inactive”.
For `Cc1cccc(NS(=O)(=O)c2ccc(C3CCCCC3)cc2)n1`, the Potency was active: 9.28 µM.
In the case of `CC(C)(C)NC(=O)C(c1ccco1)N(Cc1ccc2c(c1)OCO2)C(=O)c1snc(C(N)=O)c1N` (centres undefined), the Potency was “inactive”.
In the case of `Cc1cc(NC(=O)c2cccc(C)c2[N+](=O)[O-])no1`, the Potency was “inactive”.
With `Cc1ccccc1CC(=O)N(CCN(C)C)CC1CCCN(Cc2ccccc2F)C1` (centres undefined) the Potency was inconclusive [inhibitor, partial curve, poor fit].
For `Oc1ccc(Br)cc1-c1cc(-c2ccc(Cl)cc2)n[nH]1`, the Potency was active: 1.17 µM.
In the case of `O=C(NCc1cccnc1)Nc1ccccc1`, the Potency was “inactive”.
In the case of `Cc1ccnc(NS(=O)(=O)c2ccc(NC(=O)CC(C)c3ccccc3)cc2)n1` (centres undefined), the Potency was “inactive”.
In the case of `CC(NCC(=O)Nc1cc(S(=O)(=O)N2CCOCC2)ccc1N1CCOCC1)c1ccco1` (centres undefined), the Potency was inconclusive [inhibitor, single point].
For `CCn1c(C)nc2cc(C(=O)N/N=C/c3cccc(OC)c3O)ccc21`, the Potency was inconclusive [inhibitor, single point].
For `COc1ccc(C2c3[nH]c4ccccc4c3CCN2CCCn2cccn2)c(C)c1C` (centres undefined), the Potency was inconclusive [inhibitor, partial curve].
With `O=C(Nc1cccnc1)c1cc(-c2cc(Cl)ccc2O)n[nH]1` the Potency was inconclusive [inhibitor, full curve].
With `COc1ccc(-n2c(=O)c3ccccc3n(Cc3ccccc3F)c2=O)cc1OC` the Potency was inconclusive [inhibitor, single point].
For `O=C(N[C@@H](Cc1ccccc1)C(=O)OCc1ccccc1)c1nc[nH]c1C(=O)N[C@@H](Cc1ccccc1)C(=O)OCc1ccccc1`, the Potency was “inactive”.
With `Cc1nnc(C)c2c(C)n(-c3ccc4ncccc4c3)c(C)c12` the Potency was inconclusive [inhibitor, single point].
With `O=C(Nc1ccc(Oc2ccc(NC(=O)Nc3ccc([N+](=O)[O-])cc3)cc2)cc1)Nc1ccc([N+](=O)[O-])cc1` the Potency was inconclusive [inhibitor, full curve].
In the case of `O=C(CS(=O)(=O)c1ccccc1)c1cc2ccccc2oc1=O`, the Potency was “inactive”.
With `CC1CCN(C(=O)CSc2nnc(-c3ccc(S(=O)(=O)N4CCOCC4)cc3)n2C)CC1` the Potency was inconclusive [inhibitor, single point].
In the case of `Cc1nn(-c2ccccc2)c(N)c1N=Nc1ccccc1`, the Potency was “inactive”.
In the case of `COc1cccc2cc(-c3csc(CCn4nc(C)cc4C)n3)c(=O)oc12`, the Potency was inconclusive [inhibitor, single point].
With `O=C(CN1CCC(O)(c2cccc(F)c2)CC1)NCCc1c[nH]c2ccccc12` the Potency was inconclusive [inhibitor, single point].
With `CN(Cc1ccccc1)S(=O)(=O)c1ccc(OCC(=O)N2CCC(C(N)=O)CC2)cc1` the Potency was inconclusive [inhibitor, full curve, poor fit].
In the case of `N#Cc1ccc(Cn2c(-c3ccc(F)cc3)noc2=O)cc1`, the Potency was “inactive”.
In the case of `CC(C)Cn1cc(Cl)c(=O)n(CC(C)C)c1=O`, the Potency was “inactive”.
In the case of `CCc1cc(C(=O)c2ccc(OC)cc2)c(NC(=O)CCC(=O)O)s1`, the Potency was inconclusive [inhibitor, partial curve, poor fit].
